From PubChem BioAssay AID485294 (National Center for Advancing Translational Sciences (NCATS), 2010)
Screen size: about 370,000 compounds; about 150 (0.041%) were called active. Inconclusive results, whose numbers are uncertain, are shown with a selection of clear calls. Calls follow the shape of the dose curve; as a rule, active = well fitted inhibition curve with a large enough effect; inconclusive = small, poorly fitted or top-dose-only effect; inactive = flat fitted curve, though single readings scatter. No potency is given beside an inconclusive call; the fits are too rough.

Target: Beta-lactamase (Escherichia coli (strain K12)) (UniProt P00811)
Chain of UniProt P00811 (P00811 whole entry, looked up): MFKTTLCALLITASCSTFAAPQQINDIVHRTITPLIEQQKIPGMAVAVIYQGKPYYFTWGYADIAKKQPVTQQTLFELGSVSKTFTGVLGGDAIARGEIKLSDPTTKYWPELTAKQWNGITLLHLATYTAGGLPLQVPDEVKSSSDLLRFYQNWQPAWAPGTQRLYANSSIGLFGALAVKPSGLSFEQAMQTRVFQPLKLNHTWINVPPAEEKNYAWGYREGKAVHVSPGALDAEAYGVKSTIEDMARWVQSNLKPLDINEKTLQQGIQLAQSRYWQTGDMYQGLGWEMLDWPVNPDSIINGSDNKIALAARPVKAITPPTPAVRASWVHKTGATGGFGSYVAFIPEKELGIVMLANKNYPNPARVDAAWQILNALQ
Experiment: qHTS Inhibitors of AmpC Beta-Lactamase (assay with detergent); also: nearly all actives have a fitted effect of over 25% in size
Settings: AmpC hydrolysis of nitrocefin, absorbance 480 nm, 0.01% Triton; series mostly up to 114 µM
Summary of the method: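 20 mM phosphate pH 7.0 + 0.01% (detergent screen) or 0.0001% Triton X-100; 5.3 nM AmpC reagent; cpd preinc 15 min RT; nitrocefin (800 uM stock) to start; A480 q20 s × 4 min; Activity was normalised to no-enzyme and no-compound control wells.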
Potency is read from the fitted curve at half-maximal effect; tags tell the direction and shape of the fitted curve.

Compound	Potency
CC1(C)CNC(=O)c2sc(NC(=O)c3ccccc3)nc2C1	inactive
COc1cccc(C(=O)N2CCN(C3CCN(Cc4ccccc4)CC3)CC2)c1OC	inconclusive [inhibitor, full curve]
CCOC(=O)c1noc2nc(C)n(Cc3ccc([N+](=O)[O-])cc3)c(=O)c12	inactive
CC(C)NCC(O)c1ccc(C2CCCC2)cc1 (centres undefined)	inconclusive [inhibitor, partial curve, poor fit]
COc1ccccc1C(=O)NCCC(=O)Nc1ccc(S(=O)(=O)Nc2ncccn2)cc1	inconclusive [inhibitor, full curve, poor fit]
COc1ccc(-c2nncnn2)cc1	inconclusive [inhibitor, single point]
Cc1ccc(-c2csc3nc(SCC(N)=O)n(Cc4ccccc4)c(=O)c23)cc1	inconclusive [inhibitor, partial curve, poor fit]
O=[N+]([O-])c1ccc(CSc2ccccn2)cc1	inconclusive [inhibitor, full curve]
Cc1ccccc1NC(=O)Cc1nc(COC(=O)c2cccnc2Cl)cs1	inconclusive [inhibitor, partial curve, poor fit]
COc1ccc(-c2nnc(SCC(=O)Nc3cccc(Cl)c3)o2)cc1	inconclusive [inhibitor, partial curve, poor fit]
COc1cc(S(C)=O)ccc1-c1nc2ncccc2[nH]1 (centres undefined)	inconclusive [inhibitor, full curve, poor fit]
CCN1C(=O)/C(=C/c2cccs2)S/C1=N\S(=O)(=O)c1ccc(C)cc1	inconclusive [inhibitor, full curve, poor fit]
COc1ccc2c(c1)OC13CCN(C)CC1C2C(C(=O)c1ccc(F)cc1)C(=O)N3 (centres undefined)	inconclusive [inhibitor, partial curve, poor fit]
O=C(Cn1cc([N+](=O)[O-])ccc1=O)Nc1ccc2c(c1)OCO2	inconclusive [inhibitor, full curve, poor fit]
CCC(C)(C)C1CCc2c(sc(NC(=O)c3ccccc3C(=O)O)c2C#N)C1 (centres undefined)	inconclusive [inhibitor, single point]
O=C(Nc1ccc(F)cc1)c1ccc(CSc2ccccc2)o1	inactive
Cc1csc(=O)n1CCC(=O)OCC(=O)Nc1ncc(Cl)cc1Cl	inconclusive [inhibitor, full curve]
COc1cccc(NC(=O)CN(C)C(=O)C(C)Sc2ccccc2)c1 (centres undefined)	inconclusive [inhibitor, partial curve, poor fit]
CN1C(=O)CC(NNC(=O)c2ccccc2)C1=O (centres undefined)	inconclusive [inhibitor, full curve, poor fit]
CC(=O)N1CCCN(Cc2nc(C3(c4ccc(C)cc4)CCCC3)no2)CC1	inactive
Cc1cccc(-c2nn(-c3ccccc3)cc2C(=O)NCC(c2cccs2)N2CCOCC2)c1 (centres undefined)	inconclusive [inhibitor, full curve, poor fit]
CC(C)(C)c1nc2ccccc2[nH]1	inconclusive [inhibitor, full curve]
Cn1c(=O)c(C(=O)NNC(=O)c2cccc(Cl)c2)c(O)c2ccccc21	inactive

Compound	Potency
O=C(NC1CCCCCCC1)c1ccc(CNc2c(N3CCOCC3)c(=O)c2=O)cc1	inconclusive [inhibitor, full curve]
COc1ccc(/C=N\NC(=O)c2ccc(F)cc2)cc1COc1ccccc1C(N)=O	inactive
C[C@H](NC(=O)c1cc2c(cn1)[nH]c1ccccc12)C(=O)O	inactive
COc1cc(/C=N/NC(=O)c2cc(O)cc(O)c2)ccc1OC(=O)c1ccccc1	inconclusive [inhibitor, full curve, poor fit]
CCCCC(=O)Nc1c(-c2ccc(OC)c(OC)c2)c(=O)c2ccccc2n1C	inconclusive [inhibitor, full curve]
Cc1ccccc1OCCC(=O)Nc1ccc(S(=O)(=O)N(C)C2CCN(C)CC2)cc1	inconclusive [inhibitor, single point]
O=C(CSc1nnc2[nH]c(=O)cc(-c3ccccc3)n12)Nc1cc(C(F)(F)F)ccc1Cl	inactive
CC(=O)N1CC[n+]2c(-c3ccc(Cl)cc3Cl)csc21	inconclusive [inhibitor, full curve, poor fit]
CCCN1CCN(C(=O)CS(=O)(=O)Cc2nc(-c3cccc(OC)c3)oc2C)CC1	inconclusive [inhibitor, single point]
C/C=C/C(=O)OCC(=O)Nc1cccc(F)c1	inconclusive [inhibitor, full curve]
COc1cccc(S(=O)(=O)NCc2ccc(C(=O)NCC3CCCO3)cc2)c1 (centres undefined)	inconclusive [inhibitor, partial curve]
COC(=O)c1ccc(-c2csc(NC(=O)c3ccc(S(=O)(=O)N4CCc5ccccc5C4)cc3)n2)cc1	inactive
Cc1ccc(CNC(=O)c2ccccc2NS(C)(=O)=O)cc1	inactive
O=C1CCCc2c1cc(C(=O)NC1CCSC1=O)c(=O)n2-c1ccccc1 (centres undefined)	inactive
COc1ccc(NC(=O)/C=C/c2cccc(Br)c2)cn1	inconclusive [inhibitor, partial curve, poor fit]
COc1ccc2nc3sc(C(=O)NCCN4CCc5ccccc5C4)cc3cc2c1	inconclusive [inhibitor, full curve, poor fit]
O=C1CN(C(=O)c2ccc(Cl)c(S(=O)(=O)N3CCc4ccccc43)c2)c2ccccc2N1	inconclusive [inhibitor, single point]
CC(C)[n+]1ccn(C2=C([O-])c3ccccc3C(=O)/C2=N\S(=O)(=O)c2ccccc2)c1	inactive
Cc1ccc(NC(=O)c2cccs2)cc1S(=O)(=O)N(C)C	inconclusive [inhibitor, partial curve, poor fit]
O=C(NCc1cccnc1)c1cccc(S(=O)(=O)N2CCCCC2)c1	inactive
COc1ccc(CCC(=O)Nc2ccc(OC)c(S(=O)(=O)N3CCCCC3)c2)cc1OC	inactive
c1cnc2ccc(C(c3nnnn3C3CCCCC3)N3CCN4CCCC4C3)cc2c1 (centres undefined)	inconclusive [inhibitor, full curve, poor fit]
COc1cccc(N(C(=O)c2nc3nccc(C)n3n2)c2nc3ccccc3s2)c1	inconclusive [inhibitor, full curve, poor fit]

Compound	Potency
Cc1ccccc1-c1nnc(SCC(=O)Nc2ccc3c(c2)OCCO3)n1N	inconclusive [inhibitor, full curve, poor fit]
CSc1ccc(CN(C)C(=O)c2cc3ccccc3o2)cc1	inactive
Cc1ccc(-c2nnc3sc(-c4ccncc4)nn23)cc1	inconclusive [inhibitor, full curve, poor fit]
Cc1ccc(N=Cc2cc(Cl)cc(Cl)c2O)nc1	inactive
CCCn1c(SCC(=O)N2CCOCC2)nnc1-c1ccncc1	inconclusive [inhibitor, full curve, poor fit]
O=S(=O)(c1ccc(NC(=S)NC2CCCC2)cc1)N1CCCC1	inactive
CCCCCCCCSc1nnc(CSc2nc3nc(C)cc(C)n3n2)o1	inactive
Cc1ccc(CS(=O)(=O)Cc2ccc(C(=O)NCCCN3CCOCC3)o2)cc1	inactive
O=C(COc1ccc2c(c1)OCO2)Nc1ccccc1C(F)(F)F	inactive
CCOC(=O)c1c(N)sc2c1CCN(CCc1ccccc1)C2	inconclusive [inhibitor, full curve, poor fit]
CC(C)CCn1nnnc1C(c1ccc(F)cc1)N1CCC(C(N)=O)CC1 (centres undefined)	inconclusive [inhibitor, full curve, poor fit]
CC(Sc1ccccc1)C(=O)N1CCN(S(=O)(=O)c2ccccc2)CC1 (centres undefined)	inactive
CCCSc1nc(C)c(CC(=O)O)c(=O)[nH]1	inconclusive [inhibitor, full curve, poor fit]
Cc1cc(C)[n+]2n1C(=O)C(c1ccccc1)=C2[O-]	inconclusive [inhibitor, full curve]
Cc1ccc(NC(=O)CC2S/C(=N/N=C/c3c[nH]c4ccccc34)NC2=O)cc1 (centres undefined)	inconclusive [inhibitor, full curve]
Cc1ccccc1CS(=O)(=O)c1ncc(Cl)c(C(=O)Nc2ccc(F)cc2)n1	inconclusive [inhibitor, single point]
CC1CN(S(=O)(=O)c2cccc(C(=O)N(Cc3nnc(-c4ccccc4Cl)o3)C3CC3)c2)CC(C)O1 (centres undefined)	inactive
CCc1ccccc1NS(=O)(=O)c1ccc2c(c1)OCC(C(=O)N1CCCC1)O2 (centres undefined)	inconclusive [inhibitor, single point]
CCOCc1cc(CN2CCN(c3cccc(Cl)c3)CC2)c(O)c2ncccc12	inactive
C=CCc1cccc(/C=N/NC(=O)c2ccccc2OC)c1O	inactive
CCN(Cc1ccccc1)Cc1c(O)ccc2c(=O)c(-c3ccccc3Cl)c(C(F)(F)F)oc12	inactive
CC1(C)Cc2nc3nc(SCC(=O)NCCc4ccccc4)n(-c4ccccc4)c(=O)c3cc2CO1	inconclusive [inhibitor, full curve, poor fit]
O=C(CC(Sc1n[nH]c(-c2ccccc2)n1)c1ccccc1)NCc1ccccc1 (centres undefined)	inconclusive [inhibitor, partial curve, poor fit]
